The other results are listed elsewhere or left out. Binding of human transcription factors and regulators to the viral nucleoprotein by AlphaScreen, crude cell-free proteins, amounts not normalised, one pass. Fold of the Venus control; higher = more signal. No active / inactive call. Single-pass screen; sequences are the whole Swiss-Prot entries looked up by name.

The chains are these.
B1: RFX6, Q8HWS3 (protein)
chain: MAKVPELEDTFLQAQPAPQLSPGIQEDCCVQLLGKGLLVYPEETVYLAAEGQPGGEQGGGEKGEDPELPGAVKSEMHLNNGNFSSEEEDADNHDSKTKAADQYLSQKKTITQIVKDKKKQTQLTLQWLEENYIVCEGVCLPRCILYAHYLDFCRKEKLEPACAATFGKTIRQKFPLLTTRRLGTRGHSKYHYYGIGIKESSAYYHSVYSGKGLTRFSGSKLKNEGGFTRKYSLSSKTGTLLPEFPSAQHLVYQGCISKDKVDTLIMMYKTHCQCILDNAINGNFEEIQHFLLHFWQGMPDHLLPLLENPVIIDIFCVCDSILYKVLTDVLIPATMQEMPESLLADIRNFAKNWEQWVVSSLENLPEALTDKKIPIVRRFVSSLKRQTSFLHLAQIARPALFDQHVVNSMVSDIERVDLNSIGSQALLTISGSTDTESGIYTEHDSITVFQELKDLLKKNATVEAFIEWLDTVVEQRVIKTSKQNGRSLKKRAQDFLLKWSFFGARVMHNLTLNNASSFGSFHLIRMLLDEYILLAMETQFNNDKEQELQNLLDKYMKNSDASKAAFTASPSSCFLANRNKGSMVSSDAVKNESHVETTYLPLPSSQPGGLGPALHQFPAGNTDNMPLTGQMELSQIAGHLMTPPISPAMASRGSVINQGPMAGRPPSVGPVLSAPSHCSTYPEPIYPTLPQANHDFYSTSSNYQTVFRAQPHSTSGLYPHHTEHGRCMAWTEQQLSRDFFSGSCAGSPYNSRPPSSYGPSLQAQDSHNMQFLNTGSFNFLSNTGAASCQGATLPPNSPNGYYGSNINYPESHRLGSMVNQHVSVISSIRSLPPYSDIHDPLNILDDSGRKQTSSFYTDTSSPVACRTPVLASSLQTPIPSSSSQCMYGTSNQYPAQETLDSHGTSSREMVSSLPPINTVFMGTAAGGT
B2: GTF2IRD1, Q9UHL9 (protein)
chain: MALLGKRCDVPTNGCGPDRWNSAFTRKDEIITSLVSALDSMCSALSKLNAEVACVAVHDESAFVVGTEKGRMFLNARKELQSDFLRFCRGPPWKDPEAEHPKKVQRGEGGGRSLPRSSLEHGSDVYLLRKMVEEVFDVLYSEALGRASVVPLPYERLLREPGLLAVQGLPEGLAFRRPAEYDPKALMAILEHSHRIRFKLKRPLEDGGRDSKALVELNGVSLIPKGSRDCGLHGQAPKVPPQDLPPTATSSSMASFLYSTALPNHAIRELKQEAPSCPLAPSDLGLSRPMPEPKATGAQDFSDCCGQKPTGPGGPLIQNVHASKRILFSIVHDKSEKWDAFIKETEDINTLRECVQILFNSRYAEALGLDHMVPVPYRKIACDPEAVEIVGIPDKIPFKRPCTYGVPKLKRILEERHSIHFIIKRMFDERIFTGNKFTKDTTKLEPASPPEDTSAEVSRATVLDLAGNARSDKGSMSEDCGPGTSGELGGLRPIKIEPEDLDIIQVTVPDPSPTSEEMTDSMPGHLPSEDSGYGMEMLTDKGLSEDARPEERPVEDSHGDVIRPLRKQVELLFNTRYAKAIGISEPVKVPYSKFLMHPEELFVVGLPEGISLRRPNCFGIAKLRKILEASNSIQFVIKRPELLTEGVKEPIMDSQGTASSLGFSPPALPPERDSGDPLVDESLKRQGFQENYDARLSRIDIANTLREQVQDLFNKKYGEALGIKYPVQVPYKRIKSNPGSVIIEGLPPGIPFRKPCTFGSQNLERILAVADKIKFTVTRPFQGLIPKPDEDDANRLGEKVILREQVKELFNEKYGEALGLNRPVLVPYKLIRDSPDAVEVTGLPDDIPFRNPNTYDIHRLEKILKAREHVRMVIINQLQPFAEICNDAKVPAKDSSIPKRKRKRVSEGNSVSSSSSSSSSSSSNPDSVASANQISLVQWPMYMVDYAGLNVQLPGPLNY
B3: DMRTC1B, Q5HYR2 (protein)
chain: MAAPPKAPIRVRNLTIRAGALTGKENNMLQPETHIFTAPEEGSSQGALLLGQAPEPLSLPCTPVTLEQQLVSPSGDPHRAPALPSICSTLILQPCATLDPLLLQPQVPKVSDQALVSAHSEWQRKLEAAEALLTLRNSAQAPPDSISLHQPCNPPAPAGDKGFQPPSPSLRPRPASSISLPIGHLGCISLLS
B4: FOXJ1, Q92949 (protein)
chain: MAESWLRLSGAGPAEEAGPEGGLEEPDALDDSLTSLQWLQEFSILNAKAPALPPGGTDPHGYHQVPGSAAPGSPLAADPACLGQPHTPGKPTSSCTSRSAPPGLQAPPPDDVDYATNPHVKPPYSYATLICMAMQASKATKITLSAIYKWITDNFCYFRHADPTWQNSIRHNLSLNKCFIKVPREKDEPGKGGFWRIDPQYAERLLSGAFKKRRLPPVHIHPAFARQAAQEPSAVPRAGPLTVNTEAQQLLREFEEATGEAGWGAGEGRLGHKRKQPLPKRVAKVPRPPSTLLPTPEEQGELEPLKGNFDWEAIFDAGTLGGELGALEALELSPPLSPASHVDVDLTIHGRHIDCPATWGPSVEQAADSLDFDETFLATSFLQHPWDESGSGCLPPEPLFEAGDATLASDLQDWASVGAFL
B5: ATF6B, Q99941 (protein)
chain: MAELMLLSEIADPTRFFTDNLLSPEDWGLQNSTLYSGLDEVAEEQTQLFRCPEQDVPFDGSSLDVGMDVSPSEPPWELLPIFPDLQVKSEPSSPCSSSSLSSESSRLSTEPSSEALGVGEVLHVKTESLAPPLCLLGDDPTSSFETVQINVIPTSDDSSDVQTKIEPVSPCSSVNSEASLLSADSSSQAFIGEEVLEVKTESLSPSGCLLWDVPAPSLGAVQISMGPSLDGSSGKALPTRKPPLQPKPVVLTTVPMPSRAVPPSTTVLLQSLVQPPPVSPVVLIQGAIRVQPEGPAPSLPRPERKSIVPAPMPGNSCPPEVDAKLLKRQQRMIKNRESACQSRRKKKEYLQGLEARLQAVLADNQQLRRENAALRRRLEALLAENSELKLGSGNRKVVCIMVFLLFIAFNFGPVSISEPPSAPISPRMNKGEPQPRRHLLGFSEQEPVQGVEPLQGSSQGPKEPQPSPTDQPSFSNLTAFPGGAKELLLRDLDQLFLSSDCRHFNRTESLRLADELSGWVQRHQRGRRKIPQRAQERQKSQPRKKSPPVKAVPIQPPGPPERDSVGQLQLYRHPDRSQPAFLDAIDRREDTFYVVSFRRDHLLLPAISHNKTSRPKMSLVMPAMAPNETLSGRGAPGDYEEMMQIECEVMDTRVIHIKTSTVPPSLRKQPSPTPGNATGGPLPVSAASQAHQASHQPLYLNHP

The assay deals with nucleoprotein N of Crimean-Congo hemorrhagic fever virus. Put plainly: AlphaScreen luminescence signal relative to Venus negative control (fold); higher = stronger binding to CCHFV N. How it is done: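 AlphaScreen binding of cell-free made, FLAG-GST-tagged human transcription factors and regulators (crude translation products) to biotinylated N protein; signal as fold of the FLAG-GST-Venus control. One pass.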
On the technique in general: Alpha assays give light when donor and acceptor beads are brought close together.
In turn, B1 registered an AlphaScreen luminescence signal of 2.28.

B2: the AlphaScreen luminescence signal amounted to 3.91.

On to B3, for which the AlphaScreen luminescence signal worked out at 1.3.

B4 had an AlphaScreen luminescence signal of 2.14.

B5 showed an AlphaScreen luminescence signal of 2.98.

Values taken from the supplement of paper PMC12423691.
